# Source: PubChem BioAssay AID485313 (National Center for Advancing Translational Sciences (NCATS), 2010)
# Hit rate of the full screen: of about 320,000 compounds, about 7,600 (2.4%) were called active. Inconclusive means that the source gave no clear call. Such entries were picked first, then a sample of the others. Calls follow the shape of the dose curve; as a rule, active = well fitted activation curve with a large enough effect; inconclusive = small, poorly fitted or top-dose-only effect; inactive = no such curve, though single readings can be large or run the other way. No potency is given beside an inconclusive call; the fits are too rough.
# Assay: qHTS Assay for NPC1 Promoter Activators; also: nearly all actives have a fitted effect of over 60% in size
# Details: Huh7 NPC1 promoter luciferase reporter, 24 h; series mostly up to 9.22 µM
# Summary of the method: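 Luminescence from an NPC1 promoter-driven luciferase reporter in stably transfected Huh7 cells was measured after 24 h compound treatment at 37 °C, followed by 10 min ambient incubation with luciferase detection reagent.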
# Potency is read from the fitted curve at half-maximal effect; tags tell the direction and shape of the fitted curve.
row,SMILES,Potency
1,Cc1ccc2cc(CCNC(=O)c3cccs3)c(=O)[nH]c2c1,active: 3.16 µM
2,O=C(Nc1ccc(-c2cn3c(n2)SCC3)cc1)c1ccco1,active: 2.51 µM
3,CN1C(=O)/C(=C/C=C2\SCCN2C)SC1=S,active: 2.51 µM
4,NC(=O)C(c1ccccc1)c1ccc(C(=O)c2ccccc2)cc1 (stereo not given),inactive
5,COc1ccc(/C=C/c2cc(C(=O)O)c3ccccc3n2)cc1,"inconclusive [activator, full curve]"
6,CCOC(=O)N1CCc2c(sc(NC(=O)C3COc4ccccc4O3)c2C(N)=O)C1 (stereo not given),inactive
7,N#C/C(=C\c1cc([N+](=O)[O-])c(N2CCOCC2)cc1N1CCOCC1)c1nc2ccccc2[nH]1,inactive
8,CC(C)(C)c1ccc(/C=C/C(=O)Nc2nncs2)cc1,active: 0.794 µM
9,COc1ccc(NC(=O)c2cc(F)cc(F)c2)cc1Cl,"inconclusive [activator, partial curve]"
10,Cc1cc(NC(=O)c2ccc(-c3ccccc3F)o2)no1,active: 3.55 µM
11,Cc1cccc(N/C=C/C(=O)c2ccc(Cl)cc2)c1,active: 0.562 µM
12,Cn1cccc1C(=O)OCc1cc(Cl)cc2c1OCOC2,"inconclusive [activator, single point]"
13,Cc1ccc(F)cc1NC(=O)CSc1nnc(CNC(=O)c2ccco2)n1C,inactive
14,Cc1cccc(NC(=O)Nc2c(C)[nH]c(=O)[nH]c2=O)c1C,inactive
15,COc1ccc(CCNC(=O)c2cc(COc3c(F)cccc3F)on2)c(OC)c1,"inconclusive [activator, single point]"
16,COc1ccc(/C=N/Nc2cc(C)nc3ccc(OC)cc23)c(OC)c1,inactive
17,COc1ccc(N(C)S(=O)(=O)c2ccc3c(c2)NC(=O)CO3)c(OC)c1,inactive
18,O=[N+]([O-])c1ncccc1OCc1ccc(Cl)c(Cl)c1,"inconclusive [activator, partial curve]"
19,Cc1ccc(C(=O)NC2CCCCNC2=O)cc1C (stereo not given),"inconclusive [activator, single point]"
20,COc1ccc(/C=C/c2nc(-c3ccccc3O)n[nH]2)cc1,active: 3.55 µM
21,FC(F)(F)c1ccccc1NC(=S)N1CCc2ccccc2C1,inactive
22,Cc1cc(C)n2nc(SCC(=O)c3cc(C)n(CC4CCCO4)c3C)nc2n1 (stereo not given),inactive
23,Oc1c(Cl)cc(Cl)cc1C=Nc1cc(C(F)(F)F)ccc1N1CCc2ccccc2C1,"inconclusive [activator, single point]"
24,CC1CCN(c2nc3ccc(C(=O)NCCCN4CCCCC4)cc3s2)CC1,"inconclusive [activator, full curve, poor fit]"
25,CC(C)(C)c1ccc(C(=O)c2c[nH]c(C(=O)O)c2)cc1,"inconclusive [activator, full curve]"
26,CCN(CC)S(=O)(=O)c1cc(NC(=O)C2Cc3ccccc3C(=O)O2)ccc1C (stereo not given),"inconclusive [activator, single point]"
27,N#Cc1cccc(NC(=O)CSc2nnc(-c3n[nH]c4ccccc34)o2)c1,"inconclusive [activator, partial curve]"

row,SMILES,Potency
1,CC(=O)c1ccc(NC(=O)CSc2nnc(NC(=O)c3ccco3)s2)cc1,"inconclusive [activator, single point]"
2,Cc1ccc(NC(=O)Nc2ccc(Cl)c(Cl)c2)nc1,"inconclusive [activator, single point]"
3,O=C(Nc1nc2c(s1)CCCC2)c1ccc(Br)o1,active: 2.24 µM
4,O=C(Cc1ccccc1)Nc1ccc(NC(=O)c2cccs2)cc1,inactive
5,Cc1c(/N=C(\[O-])Nc2ccc(Br)cc2)sn[n+]1C,active: 0.282 µM
6,COc1ccc(CN2CC(C(=O)NCCCN3CCCCCC3)CC2=O)cc1 (stereo not given),inactive
7,C/C(=N\NC(=O)c1cc(C)[nH]n1)c1cccs1,active: 1.12 µM
8,Cc1c(C(=O)NCc2ccoc2)oc2ccc3c(c12)C(=O)CC(C)(C)O3,"inconclusive [activator, single point]"
9,O=C(Nc1ccccc1C(F)(F)F)c1cc(-c2ccc(O)cc2)on1,"inconclusive [activator, partial curve]"
10,Cc1cccc(Nc2nc3ccccc3s2)c1C,active: 3.16 µM
11,COC(=O)C(OC(=O)c1ccccc1)C(C)Br (stereo not given),inactive
12,COc1cccc(N=Nc2c(C)[nH]n(-c3ccccc3)c2=O)c1,"inconclusive [activator, single point]"
13,O=C(CN1C(=O)CCC1=O)Nc1nc(-c2nc3ccccc3s2)cs1,"inconclusive [activator, partial curve]"
14,CCS(=O)(=O)N1CCC(c2nc(-c3ccc(C)cc3)no2)CC1,"inconclusive [activator, single point]"
15,CCN(CC)S(=O)(=O)c1ccc2c(c1)nc(-c1ccccn1)n2C,"inconclusive [activator, partial curve]"
16,COc1ccc(Cl)cc1Nc1nc(N)c2ccccc2n1,"inconclusive [activator, single point]"
17,O=[N+]([O-])c1cccnc1NCCNc1ncc(C(F)(F)F)cc1Cl,active: 3.55 µM
18,COc1ccc(-c2cc(C(=O)N3CCCCCC3)c3ccccc3n2)c(OC)c1,inactive
19,O=C(/C=C/c1cccs1)Nc1cccnc1,"inconclusive [activator, partial curve]"
20,COc1ccc(NC(=O)n2ncc3cc(Cl)ccc32)cc1OC,"inconclusive [activator, partial curve]"
21,c1cnc2cc(-c3ccsc3)ncc2c1,"inconclusive [activator, single point]"
22,O=C(COc1ccccc1)Nc1nnc(C23CC4CC(CC(C4)C2)C3)s1,"inconclusive [activator, partial curve]"
23,Nc1c2c(nc3cccc(Cl)c13)N(c1ccccc1)CC2,"inconclusive [activator, partial curve]"
24,Nc1c(-c2ccc3c(c2)OCCO3)oc2ccccc2c1=O,"inconclusive [activator, single point]"
25,CCC(=O)OCCCCCCOc1ccc(C(=O)O)cc1,inactive
26,Cc1ccc(C)n1-n1c(C)nc2sc(-c3ccccc3)cc2c1=O,"inconclusive [activator, partial curve]"
27,CC(=O)Oc1ccc2nc(-c3ccco3)oc(=O)c2c1,inactive

row,SMILES,Potency
1,CCOC(=O)C1CCCN(C(=S)Nc2ccc(Nc3ccccc3)cc2)C1 (stereo not given),"inconclusive [activator, partial curve]"
2,CCOC(=O)c1cnc(-n2nc(C)cc2C)nc1NC,"inconclusive [activator, single point]"
3,COc1ccc(NC(=O)Nc2ccccc2OC)cc1,"inconclusive [activator, single point]"
4,c1ccn2cc(-c3ccc4c(c3)OCO4)cc2c1,"inconclusive [activator, partial curve]"
5,NC(=O)C1CCN(c2ncnc3c(-c4ccccc4)nsc23)CC1,active: 3.55 µM
6,Cc1ccnc(Nc2nc3ccccc3o2)n1,"inconclusive [activator, full curve, poor fit]"
7,COc1ccc(C2CC(C(F)(F)F)n3nc(C(=O)O)cc3N2)cc1 (stereo not given),inactive
8,C=CCSc1n[nH]c(-c2ccc(OCCC)cc2)n1,active: 2.51 µM
9,Cc1nn(-c2nc3ccccc3s2)c(C)c1Oc1ccccc1O,active: 3.55 µM
10,O=C(Nc1ncc(Cc2ccccc2Cl)s1)c1ccc(-c2cccc([N+](=O)[O-])c2)o1,inactive
11,C/C(=N\NC(=O)c1ccc(NS(=O)(=O)c2cccs2)cc1)c1ccc2ccccc2c1,inactive
12,O=c1c2sccc2nc(SCc2cc(=O)n3cc(Br)ccc3n2)n1Cc1ccccn1,"inconclusive [activator, single point]"
13,COc1cc(OC)cc(C(=O)Nc2nc3ccc(S(C)(=O)=O)cc3s2)c1,"inconclusive [activator, single point]"
14,O=C(O)c1cccc(OCc2ccccc2Cl)c1,"inconclusive [activator, full curve]"
15,CC(=O)c1ccc(S(=O)(=O)N2CCCC2)cc1,"inconclusive [activator, partial curve]"
16,COc1ccc(/C=N/OCC(=O)N2CCCC2)c(OC)c1,inactive
17,O=C(Nc1ccc(-n2cnnn2)cc1)c1cn2ccccc2n1,active: 1.58 µM
18,CCCCNC(=O)Nc1nc2ccc(CC)cc2s1,"inconclusive [activator, single point]"
19,CCC(C)NCCCCOc1ccc(Cl)cc1C (stereo not given),inactive
20,C=CCN(C(=O)CCc1ccccc1OC)c1nc(-c2ccc(S(C)(=O)=O)cc2)cs1,inactive
21,COc1ccc(/C=N/Nc2nncc3ccccc23)c(OC)c1,"inconclusive [activator, single point]"
22,CCOC(=O)Nc1sc2c(c1C#N)CCC(C)C2 (stereo not given),active: 2.82 µM
23,O=C1CCCc2oc3c(c21)CCCC3,inactive
24,CCCCN(C(=O)Cc1cccs1)c1nnc(-c2cccnc2)s1,"inconclusive [activator, partial curve]"
25,Cn1c(O)c(/C=N/NC(=O)c2cc3ccccc3cc2O)c2ccccc21,"inconclusive [activator, partial curve]"
26,COC(C[C@H]1O[C@H]1[C@H](O)COCc1ccccc1)OC,inactive
